According to the supplement of paper PMC3334620:
Over roughly 33,000 sequences, “E-score (-0.5 to 0.5)” has its median near -0.012; the highest 2% begin near 0.27. This is one part of the list.

molecular target: T1, Vhr1 (UniProt P40522); experiment: PBM E-score (8-mer binding enrichment) (E-score (-0.5 to 0.5)); higher = stronger / more preferred TF binding; most listed sequences are background and not binding sites; conditions: protein concentration: 200 nM; construct: GST-full length
T1 sequence: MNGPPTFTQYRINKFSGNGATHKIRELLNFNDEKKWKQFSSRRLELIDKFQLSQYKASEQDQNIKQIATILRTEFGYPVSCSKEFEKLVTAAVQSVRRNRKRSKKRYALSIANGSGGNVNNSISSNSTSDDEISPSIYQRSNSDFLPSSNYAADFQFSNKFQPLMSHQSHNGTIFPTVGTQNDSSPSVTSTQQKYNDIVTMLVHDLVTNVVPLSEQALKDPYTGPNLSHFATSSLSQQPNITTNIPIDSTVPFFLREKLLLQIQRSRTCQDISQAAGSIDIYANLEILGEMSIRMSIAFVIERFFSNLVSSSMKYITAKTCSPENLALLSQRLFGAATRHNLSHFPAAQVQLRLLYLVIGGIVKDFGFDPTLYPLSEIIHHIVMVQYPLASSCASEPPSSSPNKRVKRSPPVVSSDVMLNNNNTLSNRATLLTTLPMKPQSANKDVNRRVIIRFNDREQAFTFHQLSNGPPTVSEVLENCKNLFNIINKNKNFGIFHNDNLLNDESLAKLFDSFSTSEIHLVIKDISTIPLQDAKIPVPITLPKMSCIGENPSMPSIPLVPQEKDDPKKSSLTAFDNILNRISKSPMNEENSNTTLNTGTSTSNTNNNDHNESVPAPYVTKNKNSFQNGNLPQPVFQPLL
Method: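 Universal 'all 10-mer' protein binding microarrays (Agilent AMADID 015681) probed with GST-tagged S. cerevisiae TFs (full-length or DBD) made by in vitro transcription/translation (PURExpress), about 100-200 nM. Bound TF was detected with fluorescent anti-GST. Each ungapped 8-mer (which stands for itself and its reverse complement) is scored by the PBM enrichment score (E-score), a modified Wilcoxon-Mann-Whitney statistic from -0.5 to +0.5, computed with the Universal PBM Analysis Suite. Scale: above 0.35 generally sequence-specific binding.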

Sequence | PBM E-score
GCCTCCCA | -0.165
GAACGACA | 0.0721
CACTACGA | 0.0137
GAAGCTGA | -0.0786
GGATTAGA | -0.101
AGATAACG | 0.0166
GATTTACA | -0.115
AGTTTTTG | -0.0458
GCACCGAC | 0.0173
AAAAGTGC | -0.152
GAATCATA | 0.397
CATCACTA | -0.00513
GTCATAAC | 0.125
CCACCGGG | -0.00778
CATTTAAA | 0.0721
CCGGTTTA | -0.153
AGGCCAGA | 0.0413
ATTACTTA | -0.0137
CTTATTTC | -0.065
CGTTACCA | 0.0673
CCGTACCA | 0.102
AACCCGCG | 0.238

Sequence | PBM E-score
AACATGTG | 0.227
CGGTGACA | 0.148
CATAGCAC | 0.195
CCCCGACG | 0.02
CTAAACAG | -0.00454
CTAGACGC | -0.154
CTAAAGAG | -0.0856
CTAAGACA | 0.00502
GACAAATC | -0.0258
GAAAAAAA | -0.0556
CCGGTTTC | 0.00669
AGGCCCTG | -0.162
TCTGCTCA | -0.0147
CAAAAGGG | -0.143
GAAAAGAC | 0.0806
CGCCTTAC | -0.144
ATAGATAC | -0.0435
GTACACGA | 0.137
CCGTATGA | 0.199
TTACTGAA | -0.183
AGCAGTCC | -0.151
CGCGCTGA | -0.0182

Sequence | PBM E-score
GACATTCA | 0.0415
GGAAGTAA | -0.17
CGCTGGAA | -0.135
GGTAATTA | -0.0818
GACATGAC | 0.202
CCGAATTC | -0.00329
AAGCTCTA | -0.267
ATCACGGG | 0.00381
CGACGGCA | -0.181
GAAATGCA | -0.00636
GCGCTGCC | -0.188
CAATCGAG | 0.00933
ACCATGTC | 0.144
CGGTTTTA | -0.0933
CATTCCCC | 0.14
GCGTGACA | 0.0875
CTGCTATA | 0.0862
CCTAAGCA | -0.108
AGTAACTG | -0.155
ACGGACAA | 0.0257
AGCAAACT | 0.0348
CGTGTTGC | 0.103

Sequence | PBM E-score
CGATCGCG | 0.0985
ACTTTTTC | -0.142
CAGCCTCA | 0.00707
AAAATAGC | -0.171
CACTTATC | 0.078
CTGGGCAA | -0.00184
CAATTTAA | -0.0106
ACTGGTAG | 0.161
ACGACTTC | 0.0846
GGCGTACA | 0.00512
ATATTCAC | 0.0124
CCACGTCC | -0.132
CGGTTCTC | -0.171
CCGCTACG | -0.236
GAGGCACC | -0.169
ACCTGTTG | -0.126
CAAGGGGC | -0.1
AAGACGCG | -0.151
ACATCCGA | 0.0152
TAATGACA | 0.0997
